Some of the results follow. These are noisy estimates, calculated here from bound and input reads.

The test deals with T1, Pho4 (S. cerevisiae) (UniProt P07270).
T1 sequence: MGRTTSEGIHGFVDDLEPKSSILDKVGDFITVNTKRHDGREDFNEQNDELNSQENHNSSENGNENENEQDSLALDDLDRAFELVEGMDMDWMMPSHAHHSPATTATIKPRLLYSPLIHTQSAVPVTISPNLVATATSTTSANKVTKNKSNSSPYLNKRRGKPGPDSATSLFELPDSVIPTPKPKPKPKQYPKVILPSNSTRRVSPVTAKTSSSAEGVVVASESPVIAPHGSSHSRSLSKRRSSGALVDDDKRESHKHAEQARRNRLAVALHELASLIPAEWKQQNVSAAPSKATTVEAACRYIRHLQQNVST
Put plainly: relative binding free energy (BET-seq); higher = weaker binding. To be noted: reference: library average.
Consider GAGTTCACGTGGCATG, for which the “relative binding free energy” value is 0.28 kcal/mol.
TTCATCACGTGTTTGT: the “relative binding free energy” value was determined as 0.26 kcal/mol.
The result for TTGTCCACGTGTTTGT reads 0.02 kcal/mol; that for TTTGGCACGTGCGGTT, -0.2 kcal/mol.
Consider GTTCACACGTGGGTGC, for which the “relative binding free energy” value was determined as 0.03 kcal/mol.
TTTGACACGTGCGAGT: the “relative binding free energy” value amounted to 0 kcal/mol.
For TATAACACGTGAAGTG, the “relative binding free energy” value turned out to be 0.22 kcal/mol.
For AGGAACACGTGTGGCT, the “relative binding free energy” value worked out at 0.1 kcal/mol.
In the case of ATTAACACGTGTGGGC, the “relative binding free energy” value came to 0.01 kcal/mol.
The result for ATGTACACGTGCGGCG reads 0.05 kcal/mol; that for ATATGCACGTGGCATG, -0.22 kcal/mol; that for AATTGCACGTGCTTGT, -0.15 kcal/mol.
TATGGCACGTGAGGAA: the “relative binding free energy” value was 0.13 kcal/mol.
With TTGCACACGTGTGGTG, the “relative binding free energy” value was -0.01 kcal/mol.
As for GGGGTCACGTGTTCGG, the “relative binding free energy” value is 0.22 kcal/mol.
Regarding TCTTACACGTGTGGTG, the “relative binding free energy” value came to 0.08 kcal/mol.
Take TAGTTCACGTGTTCGC: the “relative binding free energy” value was 0.27 kcal/mol.
On to GTTATCACGTGTTGAA, for which the “relative binding free energy” value is 0.19 kcal/mol.
Take ACGGCCACGTGTGAGG: the “relative binding free energy” value amounted to 0.05 kcal/mol.
Regarding TTTTTCACGTGTGGTA, the “relative binding free energy” value turned out to be 0.37 kcal/mol.
Take TGTACCACGTGATTTG: the “relative binding free energy” value came to 0.03 kcal/mol.
Consider GTGGTCACGTGTGAAT, for which the “relative binding free energy” value is 0.24 kcal/mol.
On to CCTGTCACGTGGGTTT, for which the “relative binding free energy” value amounted to 0.02 kcal/mol.
TAGGGCACGTGGAAGA: the “relative binding free energy” value was -0.04 kcal/mol.
Regarding AGGGTCACGTGGTAGG, the “relative binding free energy” value amounted to 0.12 kcal/mol.
For the sequence GTAAGCACGTGAATTG, the “relative binding free energy” value came to 0.27 kcal/mol.
For the sequence TAGGTCACGTGTGAAA, the “relative binding free energy” value turned out to be 0.27 kcal/mol.
As for GGGATCACGTGGATGT, the “relative binding free energy” value came out at 0.29 kcal/mol.
Consider TGTTCCACGTGGTGAT, for which the “relative binding free energy” value is 0.07 kcal/mol.
For TAGAGCACGTGTGTAT, the “relative binding free energy” value was -0.18 kcal/mol.
As to GATTTCACGTGGCGAT, the “relative binding free energy” value is 0.3 kcal/mol.
For TTCGGCACGTGTGCAG, the “relative binding free energy” value is -0.08 kcal/mol.
Turning to TTAGGCACGTGCGGAG, the “relative binding free energy” value was -0.23 kcal/mol.
TACGTCACGTGTGCGT: the “relative binding free energy” value came to 0.09 kcal/mol.
Next, ATGGCCACGTGGGGGG: -0.26 kcal/mol; TGGGGCACGTGTATAG: -0.18 kcal/mol.
In the case of TCAGACACGTGTAGGG, the “relative binding free energy” value came out at 0.09 kcal/mol.
Next, GTGGTCACGTGATTGC: 0.36 kcal/mol.
On to TGGATCACGTGAGTTC, for which the “relative binding free energy” value worked out at 0.32 kcal/mol.
As to GTACACACGTGTGGGT, the “relative binding free energy” value was 0.06 kcal/mol.
TAGCGCACGTGGTAAG: the “relative binding free energy” value is -0.08 kcal/mol.
In the case of TGTGGCACGTGGCACA, the “relative binding free energy” value was -0.15 kcal/mol.
For the sequence AGAAGCACGTGGGGAT, the “relative binding free energy” value was 0 kcal/mol.
For the sequence CGAGTCACGTGTGGGT, the “relative binding free energy” value was 0.09 kcal/mol.
On to TAGAGCACGTGGCATT, for which the “relative binding free energy” value is -0.12 kcal/mol.
The result for GGTAGCACGTGCGTTG reads -0.05 kcal/mol; that for CGGGACACGTGGGTTA, -0.08 kcal/mol; that for AAAAGCACGTGGGGGA, -0.23 kcal/mol.
On to CGATACACGTGGGGTT, for which the “relative binding free energy” value is -0.12 kcal/mol.
Consider ATTTCCACGTGTATTT, for which the “relative binding free energy” value came out at 0.07 kcal/mol.
For the sequence ATGATCACGTGAGGTC, the “relative binding free energy” value turned out to be 0.51 kcal/mol.
The result for TGGAACACGTGTTCTG reads 0 kcal/mol; that for TCGTTCACGTGATGGC, 0.41 kcal/mol; that for CTGTGCACGTGATTGA, 0.22 kcal/mol.
With GGTGCCACGTGGGAGT, the “relative binding free energy” value is -0.07 kcal/mol.
GGCAGCACGTGGGGTA: the “relative binding free energy” value is -0.18 kcal/mol.
Regarding TGGCTCACGTGGGGAA, the “relative binding free energy” value is 0.19 kcal/mol.
For GTCGACACGTGATGTT, the “relative binding free energy” value is 0.24 kcal/mol.
For GGTGCCACGTGATTTG, the “relative binding free energy” value is 0.06 kcal/mol.
Take TGGCTCACGTGAGAGG: the “relative binding free energy” value stood at 0.37 kcal/mol.
As for TAGTGCACGTGGATCT, the “relative binding free energy” value amounted to 0.07 kcal/mol.
Turning to AGCGACACGTGGTAGG, the “relative binding free energy” value was -0.1 kcal/mol.
As for CTTTTCACGTGGTTAA, the “relative binding free energy” value came to 0.17 kcal/mol.
As for TGATGCACGTGCGGAG, the “relative binding free energy” value was -0.07 kcal/mol.
Regarding ATAGTCACGTGCCTGG, the “relative binding free energy” value is 0.09 kcal/mol.
Consider ACTGTCACGTGTTAGT, for which the “relative binding free energy” value was 0.02 kcal/mol.
Consider TTTGGCACGTGCTGAA, for which the “relative binding free energy” value was -0.2 kcal/mol.
Consider ATATACACGTGGGGAC, for which the “relative binding free energy” value is 0.04 kcal/mol.
Take GATGGCACGTGAAGAG: the “relative binding free energy” value was 0.25 kcal/mol.
Regarding TCCTGCACGTGGTTGG, the “relative binding free energy” value amounted to 0 kcal/mol.
Next, AGGCTCACGTGATTGA: 0.46 kcal/mol.
As to CGCGGCACGTGTGGCG, the “relative binding free energy” value amounted to 0.02 kcal/mol.
Next, GTTTTCACGTGGACGT: 0.18 kcal/mol; TGTATCACGTGTGGAC: 0.23 kcal/mol; TGGTTCACGTGGTACA: 0.13 kcal/mol.
With ATATCCACGTGGGGGG, the “relative binding free energy” value is -0.16 kcal/mol.
Take AGTGACACGTGGGGTG: the “relative binding free energy” value is -0.12 kcal/mol.
In the case of AGTATCACGTGAAGTT, the “relative binding free energy” value amounted to 0.23 kcal/mol.
In the case of ACATTCACGTGTAGGG, the “relative binding free energy” value turned out to be 0.1 kcal/mol.
For the sequence GTGTTCACGTGCGTTC, the “relative binding free energy” value was determined as 0.2 kcal/mol.
As to TTTCACACGTGGGTCT, the “relative binding free energy” value was -0.02 kcal/mol.
With TCTGGCACGTGGGGTA, the “relative binding free energy” value was -0.29 kcal/mol.
The result for TGAGTCACGTGATTTA reads 0.28 kcal/mol; that for TCTTACACGTGTAGTT, 0.12 kcal/mol; that for GTTAGCACGTGAGATG, 0.2 kcal/mol.
As to GTCGTCACGTGAGATA, the “relative binding free energy” value was 0.4 kcal/mol.
Next, GTTTTCACGTGGTGCG: 0.26 kcal/mol; GACGGCACGTGGATGT: 0.02 kcal/mol.
Take GGGGACACGTGGGTGC: the “relative binding free energy” value is 0 kcal/mol.
Turning to TATTACACGTGGAGAG, the “relative binding free energy” value was found to be 0.02 kcal/mol.
Take TATTGCACGTGAGGGA: the “relative binding free energy” value is 0.15 kcal/mol.
Take ATGGTCACGTGAAATT: the “relative binding free energy” value amounted to 0.27 kcal/mol.
As for ACTATCACGTGGGTTT, the “relative binding free energy” value came to 0 kcal/mol.
TGTGCCACGTGGTCTG: the “relative binding free energy” value was -0.11 kcal/mol.
In the case of TAGTTCACGTGGCGGT, the “relative binding free energy” value amounted to 0.23 kcal/mol.
Regarding GCTTGCACGTGGGGTT, the “relative binding free energy” value is -0.15 kcal/mol.
The result for AAAGTCACGTGTCGGT reads 0.11 kcal/mol; that for ACGGGCACGTGCGTGT, -0.33 kcal/mol; that for TGTTTCACGTGGGTAG, 0.26 kcal/mol.
Next, GTTGACACGTGGACTG: 0 kcal/mol; TGGAGCACGTGCGTCT: -0.03 kcal/mol.
The result for CCTTGCACGTGGGTGT reads -0.09 kcal/mol.
With CTGGGCACGTGGCGTG, the “relative binding free energy” value was -0.14 kcal/mol.
Regarding ATGGACACGTGTTGAT, the “relative binding free energy” value is 0.1 kcal/mol.
On to GAGTTCACGTGGTCTA, for which the “relative binding free energy” value is 0.35 kcal/mol.
As to ATATACACGTGATATT, the “relative binding free energy” value was determined as 0.12 kcal/mol.
On to AGGGGCACGTGGGACG, for which the “relative binding free energy” value was -0.23 kcal/mol.
Regarding TTTTTCACGTGGATCA, the “relative binding free energy” value came to 0.4 kcal/mol.
In the case of TTGTGCACGTGATGGG, the “relative binding free energy” value worked out at 0.12 kcal/mol.
GGTTACACGTGTGTGG: the “relative binding free energy” value was determined as 0.25 kcal/mol.
Turning to GGTAGCACGTGGTTCG, the “relative binding free energy” value was -0.16 kcal/mol.
Next, ATAATCACGTGTAGTT: 0.14 kcal/mol; CGAGTCACGTGCAGGT: 0.16 kcal/mol.
On to TGTAGCACGTGGTCTT, for which the “relative binding free energy” value is -0.11 kcal/mol.
With TTAGTCACGTGGAACG, the “relative binding free energy” value stood at 0.23 kcal/mol.
